Hit rate of the full screen: of about 310,000 compounds, about 2,200 (0.71%) showed an effect of 50% or more. Effects have a minus sign here. Some of the results follow.
The molecules below were run against human ether-à-go-go-related gene (hERG) potassium channel (human, UniProt Q12809) (assay: primary screen, population patch clamp on CHO cells stably expressing hERG).
Sequence of human ether-à-go-go-related gene (hERG) potassium channel (Q12809 whole entry, looked up): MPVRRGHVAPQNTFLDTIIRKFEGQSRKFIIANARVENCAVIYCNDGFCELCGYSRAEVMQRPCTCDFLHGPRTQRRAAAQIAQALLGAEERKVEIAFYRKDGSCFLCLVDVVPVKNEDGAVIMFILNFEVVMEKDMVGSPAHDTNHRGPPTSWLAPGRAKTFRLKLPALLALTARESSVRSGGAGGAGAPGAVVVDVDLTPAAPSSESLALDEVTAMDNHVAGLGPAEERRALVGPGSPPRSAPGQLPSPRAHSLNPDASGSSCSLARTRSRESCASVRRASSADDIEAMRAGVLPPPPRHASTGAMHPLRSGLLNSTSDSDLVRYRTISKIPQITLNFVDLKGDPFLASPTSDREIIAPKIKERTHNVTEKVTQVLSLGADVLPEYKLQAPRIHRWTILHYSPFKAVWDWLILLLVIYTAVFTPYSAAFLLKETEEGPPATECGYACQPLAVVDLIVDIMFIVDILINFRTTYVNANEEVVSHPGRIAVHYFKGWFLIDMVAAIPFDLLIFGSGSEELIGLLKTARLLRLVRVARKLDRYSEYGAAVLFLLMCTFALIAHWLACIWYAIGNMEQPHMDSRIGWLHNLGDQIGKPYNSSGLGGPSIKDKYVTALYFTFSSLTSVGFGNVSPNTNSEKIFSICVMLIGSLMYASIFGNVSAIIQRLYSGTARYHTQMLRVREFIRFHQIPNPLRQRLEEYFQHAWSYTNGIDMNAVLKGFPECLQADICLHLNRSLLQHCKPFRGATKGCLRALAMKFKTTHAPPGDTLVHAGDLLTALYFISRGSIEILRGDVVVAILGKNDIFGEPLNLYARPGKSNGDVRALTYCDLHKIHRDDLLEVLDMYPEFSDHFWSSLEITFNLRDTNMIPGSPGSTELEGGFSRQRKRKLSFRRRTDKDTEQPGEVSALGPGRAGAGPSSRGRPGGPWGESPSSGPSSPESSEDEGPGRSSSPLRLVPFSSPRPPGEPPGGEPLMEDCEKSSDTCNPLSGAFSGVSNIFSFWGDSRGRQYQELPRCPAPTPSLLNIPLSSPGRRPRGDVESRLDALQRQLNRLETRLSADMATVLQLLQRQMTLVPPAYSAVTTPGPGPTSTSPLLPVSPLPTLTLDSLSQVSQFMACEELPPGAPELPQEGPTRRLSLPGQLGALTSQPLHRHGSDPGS

Structure (SMILES) | hERG current change (%, negative = inhibition) at 1uM [%]
CCc1cc2c(cc3c(=O)n(CC(=O)NCCCN(CC)CC)nc(CC)n32)s1 | 8.7
N#CC1(CCCN2CCCCC2)c2ccccc2CCc2ccccc21.O=C(O)C(=O)O | -28.3
CCOc1ccccc1N1CCN(S(=O)(=O)c2cc(C)ccc2OC)CC1 | 10.1
CN1/C(=C\C(=S)NC(=O)c2ccccc2Cl)C(C)(C)c2ccccc21 | 18.4
COc1cc2c(cc1O)[C@@H]1Cc3cc(OC)c(OC)cc3C(C2)N1C | 7.84
Cc1nc2ccc(C(=O)O)cc2c2c1CC(CN)O2 (stereo not drawn) | 18
COc1cc(C(=O)NC2CCN(CC(=O)Nc3cccc(C)c3C)CC2)cc(OC)c1OC | 3.41
C(=N\Nc1ccc(-n2ccnc2)nn1)/c1ccccc1 | 7.51
CCc1cc2c(N=Nc3c(O)[nH]c4ccccc34)ncnc2s1 | 14.1
Cn1cc([N+](=O)[O-])c(C(=O)N/N=C/c2cc3c(cc2Br)OCO3)n1 | 8.91
Cc1cc(-c2n[nH]c(=S)n2-c2ccccc2)nn1C | 11.1
Cc1ccc2c(c1)c(=O)c1c3n2CCN(C(=O)CCl)C3CC1 (stereo not drawn) | 7.46
COC/C=C/C1=CC2=CC(=O)C(C)(OC(=O)c3cnc4ccccc4n3)C(=O)C2=CN1c1cccc(C#N)c1 (stereo not drawn) | 7.85
COC(=O)C1=C(CN2CCCc3ccccc32)NC(=O)NC1c1ccc(F)cc1 (stereo not drawn) | 1.29
O=C1C=C(c2ccccc2)CC(c2ccc(F)cc2)C1 (stereo not drawn) | -3.42
Cc1nc2c(-c3ccccc3)c(C)[nH]n2c(=O)c1Cc1ccccc1 | 4.93
CCOc1ccc(NS(=O)(=O)c2cc(C)c(C)cc2C)cc1 | 1.9
CCN1CCN(C(=O)c2ccc(Cl)c(S(=O)(=O)N3CCCCCC3)c2)CC1.Cl | -14
COc1ccc2c(c1OC)C(=O)OC2Nc1nc2ccccc2s1 (stereo not drawn) | 8.65
O=C1CCCC(O)=C1C(C#Cc1ccccc1)C1=C(O)CCCC1=O | 2.05
O=c1cc(-c2ccccc2)nc(SCc2ccccc2F)[nH]1 | 9.43
Cc1ccc(NC(=O)c2cc3ccccc3oc2=O)cc1S(=O)(=O)N(C)C | 17.8
COCCn1c(SCC(=O)Nc2c(C)n(C)n(-c3ccccc3)c2=O)nnc1-c1ccncc1 | 15.3

Structure (SMILES) | hERG current change (%, negative = inhibition) at 1uM [%]
Cc1ccc(CN2CCNC(=O)C2CC(=O)O)cc1 (stereo not drawn) | 9.25
CCCCOc1cc(C(=O)OCCN(CC)CC)ccc1N.Cl | -23.2
CC(=O)Nc1nc(C)c(Oc2cccc(C(F)(F)F)c2)c(=O)[nH]1 | 12.1
CCOC(=O)C1(CCc2ccccc2)CCN(Cc2ccc(OC)cc2)CC1 | -86.9
O=C(Cn1cc(C(F)(F)F)ccc1=O)Nc1ccc(N2CCOCC2)cc1 | -0.732
NC(=S)Nc1cccc2cn[nH]c12 | -1.62
COc1ccc(CCC(=O)NCCc2ccc(OC)c(OC)c2)cc1 | 19
CC(OC(=O)c1cccnc1)C(=O)Nc1ccc2c(c1)OCO2 (stereo not drawn) | 12.2
Cc1cc(C)cc(NC(=O)C(OC(=O)c2cccs2)c2ccccc2)c1 (stereo not drawn) | 16.7
COC(=O)C(CCCN1C(=O)c2ccccc2C1=O)(NC(C)=O)c1nnn(C)n1 (stereo not drawn) | 8.91
CCN(CC)C(=O)C1CCCN(Cc2cccc(F)c2)C1 (stereo not drawn) | 13.3
CCC(C)(C)n1nnnc1C(c1cc2cc3c(cc2[nH]c1=O)OCO3)N1CCN(C)CC1 (stereo not drawn) | 2.02
CC1CCN(CC(=O)NC(=O)NCc2ccccc2)CC1 | 13.4
CC12CCC(C(=O)Nc3ccncc3)(CC1O)C2(C)C (stereo not drawn) | 9.1
CN(C)c1ccc(C(C#N)c2ccccc2)nn1 (stereo not drawn) | 17.6
COc1ccc(OC)c(CNC(=O)C2CCN(S(=O)(=O)N3CCC(C)CC3)CC2)c1 | -7.91
COc1cc2[nH]c3c(=O)n(N)c(=O)[nH]c3c2cc1OC | 12.5
O=C1OCCN/C1=C\C(=O)c1ccccc1 | 3.81
Nc1nc(CSc2ncn[nH]2)nc(Nc2ccc(F)cc2)n1 | 7.31
CCOC(=O)c1cc2c(ccn2C)n1CC(=O)N1CCC(C)CC1 | 10.1
N#Cc1cc(-c2ccccc2)nn1-c1ccccc1 | 14.1
CNc1c(NS(=O)(=O)c2cc(Cl)ccc2OC)c(=O)oc2ccccc12 | 7.13
COc1ccc(Cc2nc(-c3cccs3)no2)cc1OC | 14.9

Structure (SMILES) | hERG current change (%, negative = inhibition) at 1uM [%]
O=C(Nc1cc(Cl)cc(Cl)c1)N1CCN(C(=O)C2CCCO2)CC1 (stereo not drawn) | -0.208
CS(=O)(=O)c1ccc(C(=O)OCC(=O)N(CCc2ccccc2)Cc2ccccc2)cc1 | -1.59
CSc1cccc(NC(=O)C2CCN(S(=O)(=O)c3cnc[nH]3)CC2)c1 | 10.1
Cc1c(-n2c(SCC(=O)O)nnc2-c2ccccc2Cl)c(=O)n(-c2ccccc2)n1C | 15.4
COc1ccc(CN2CCN(Cc3cccc(OC)c3)C(CCO)C2)cc1 (stereo not drawn) | -11.7
O=C(NCc1ccncc1)c1cccc(S(=O)(=O)N2CCc3ccccc32)c1 | -3.39
CC(=O)c1c(C)[nH]c(C(=O)Nc2nc(-c3ccc(-c4ccccc4)cc3)cs2)c1C | 6.71
CCCCNC(=O)COC(=O)c1cc2c(C)nn(-c3ccccc3)c2s1 | 9.21
CCOc1ccc(NC(=O)CN2CCc3ccccc3C2)cc1 | 11.6
CCCN(CC1CC1)C(=O)Nc1ccccc1C | 11
NC(=O)c1nsc(C(=O)N(CC(=O)NC2CCCCC2)Cc2ccc(F)cc2)c1N | 16
CCc1ccc(S(=O)(=O)Nc2nnc(N)s2)cc1 | 10.6
Cc1n[nH]c(C)c1N=Nc1ccc(Br)cc1 | 19.8
CC(C)(C)NC(=O)Cn1nnc(-c2ccccc2NC(=O)c2cnccn2)n1 | -7.54
C#CCOCCOCCOCCNc1nc(N2CCN(C(=O)C([C@@H](C)CC)n3cc(C(N)COC(=O)C(F)(F)F)nn3)CC2)nc(N2CCN(C(=O)[C@H](CCCCN)n3cc(C(N)[C@H](C)CC)nn3)CC2)n1.Cl (stereo partly drawn) | 10.5
CCN(c1ccccc1)S(=O)(=O)c1ccc(C(=O)Nc2ncccc2C)cc1 | 11.1
CCCn1c(=O)c(C(=O)NCc2ccccc2)c(O)c2ccccc21 | 7.02
COc1ccc(-c2nc3cc([N+](=O)[O-])ccc3o2)cc1OC | 12.5
COCCNC(=O)c1noc2c1CCc1cc(OC)ccc1-2 | -5.73
CCOc1cccc(C(=O)Nc2nc(-c3ccc(S(=O)(=O)N4CCOCC4)cc3)cs2)c1 | 2.54
O=C(COc1cccc(Cl)c1)NCc1ccccc1 | 18
COc1ccc(N2C(=O)CC(N3CCN(c4ccc(S(=O)(=O)N5CCCC5)cc4)CC3)C2=O)cc1 (stereo not drawn) | 4.15
CCOc1ccccc1NC(=O)c1ccc2c(c1)C(=O)N(C(C)(C)C)C2=O | 12.4

Structure (SMILES) | hERG current change (%, negative = inhibition) at 1uM [%]
CC(C)Oc1ccc(CC(=O)NNC(=S)Nc2ccc(Br)cc2)cc1 | 3.6
Cc1cc(C)n2cc(CSCc3ccco3)nc2n1 | 11
CC12CC3CC(C)(C1)CC(C(=O)Nc1nn[nH]n1)(C3)C2 | 5.81
O=C1CCCCC(=O)c2ccccc2N1 | 25.3
CCN(CC(=O)N1CCOCC1)S(=O)(=O)c1ccc(C)cc1 | 8.47
CC(=O)C1=C(O)C(=O)N(c2cccnc2)C1c1ccc([N+](=O)[O-])cc1 (stereo not drawn) | 5.27
CCOC(=O)N1CCC2(CC1)C(C#N)=C(N)OC1=C2C(=O)CC(C)C1 (stereo not drawn) | 6.09
CC(=O)NC12CC3CC(C1)CC(C(=O)NCC(=O)Nc1c(C)cc(C)cc1C)(C3)C2 | 12
O=C(NCC1CCCCC1)c1cc(Br)ccc1Cl | 11.8
COCc1c(C#N)c(NCCc2ccc(F)cc2)nc(C)c1[N+](=O)[O-] | 6.46
CCN(CC(=O)Nc1ccc(S(=O)(=O)N2CCCCC2)cc1)Cc1ccccc1 | 3.56
COc1ccc(F)cc1C(=O)C1CCCN(Cc2ccc(O)cc2)C1 (stereo not drawn) | -25.1
O=C(OCCc1cc2ccccc2c(=O)o1)c1ccco1 | 5.27
S=C(NCc1ccco1)N1CCN(c2ccccn2)CC1 | 18.5
Nc1nncn1C(=O)c1c(Cl)cccc1Cl | 1.14
Cc1cccc(OCC(O)CN2CCN(CCN3C(=O)c4cccc5cccc(c45)C3=O)CC2)c1C (stereo not drawn) | 15.1
Cn1c(SCC(N)=O)nnc1-c1ccccc1 | 1.72
Nc1nnn(CC(=O)N/N=C/c2ccc(Cl)cc2Cl)n1 | 11.7
CCCSc1nnc(CSc2ncccn2)n1C | 13
Cc1ccc(S(=O)(=O)n2nc(-c3ccco3)nc2SCc2ccccc2)cc1 | 7.34
COc1cccc(C(=O)CC(=O)C(=O)Nc2ccc(C)cc2Cl)c1 | 9.95
